The results in this text go back to publication PMC6919601, “Identification of Plasmodium dipeptidyl aminopeptidase allosteric inhibitors by high throughput screening” (PLoS ONE, 2019).

The campaign covered roughly 110,000 compounds. About 230 (0.21%) showed an effect of 50% or more. The list shows a part of the results.
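Also: 30 min substrate incubation versus DMSO and 10 µM JCP410 controls.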

The experiment deals with DPAP1 (Plasmodium falciparum, UniProt Q8IIJ9). Briefly: primary screen, percent inhibition; read by cleavage of a fluorogenic dipeptide substrate; higher = more effect of the substance. More on the design: species or system P. falciparum D10 trophozoite lysates; single well.
Sequence of DPAP1 (Q8IIJ9 whole entry, looked up): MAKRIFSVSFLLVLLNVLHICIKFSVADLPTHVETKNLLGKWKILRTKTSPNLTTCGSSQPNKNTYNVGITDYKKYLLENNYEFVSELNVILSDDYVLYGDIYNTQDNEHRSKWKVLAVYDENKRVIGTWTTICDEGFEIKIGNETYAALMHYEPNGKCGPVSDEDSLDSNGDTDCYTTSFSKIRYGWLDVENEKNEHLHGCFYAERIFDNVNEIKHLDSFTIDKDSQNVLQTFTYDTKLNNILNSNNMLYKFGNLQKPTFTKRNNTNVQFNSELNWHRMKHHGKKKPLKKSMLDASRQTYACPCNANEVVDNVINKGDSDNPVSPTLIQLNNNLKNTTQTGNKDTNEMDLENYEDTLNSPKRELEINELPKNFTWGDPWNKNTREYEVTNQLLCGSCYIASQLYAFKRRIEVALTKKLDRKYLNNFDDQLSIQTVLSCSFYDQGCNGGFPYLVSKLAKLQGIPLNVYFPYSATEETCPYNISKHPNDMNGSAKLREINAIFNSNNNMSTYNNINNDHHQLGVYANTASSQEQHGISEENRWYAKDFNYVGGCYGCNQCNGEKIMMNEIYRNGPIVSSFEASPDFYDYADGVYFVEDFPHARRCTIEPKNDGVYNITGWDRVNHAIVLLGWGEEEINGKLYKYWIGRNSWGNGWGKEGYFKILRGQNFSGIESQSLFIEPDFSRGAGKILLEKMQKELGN
Turning to `N#CC1CC(c2ccccc2)=NN1c1ccccc1` (centres unmarked), the “% Inhibition @ 10 uM” value is listed as 1.7%.
In the case of `Cc1ccc(OCC(=O)Nc2cccc(Cl)c2Cl)cc1` it was 2.69%; in that of `CC1CC(NC(=O)c2ccc(Br)s2)CC(C)(C)C1` (centres unmarked), 3.32%.
With `O=C(NCCC1=CCCCC1)c1ccc2c(c1)ncn2C1CCCC1`, the “% Inhibition @ 10 uM” value was -3.12%.
Regarding `Cn1c(C(=O)NCC2CCCO2)cc2sc(Cl)cc21` (centres unmarked), the “% Inhibition @ 10 uM” value was -12.6%.
In the case of `C=CCSc1nc(=O)cc(O)n1CC` it was 6.41%; in that of `CCC1CCc2nc3sc(C(=O)NCc4ccccc4OC)c(N)c3cc2C1` (centres unmarked), 10.3%.
For `Cc1ccc2nc(-c3ccccc3)cc(C(=O)O)c2c1`, the “% Inhibition @ 10 uM” value came out at 4.8%.
Take `CC(CC#CCN1CCOCC1)OC(C)(C)C` (centres unmarked): the “% Inhibition @ 10 uM” value is -0.268%.
With `N#CC1=C(N)Oc2[nH]nc(-c3cccnc3)c2C1c1cc2c(cc1Br)OCO2` (centres unmarked), the “% Inhibition @ 10 uM” value is -0.25%.
With `Cc1sc2c(c1[N+](=O)[O-])C(=O)NCCC2`, the “% Inhibition @ 10 uM” value is given as 5.42%.
Turning to `O=C(Nc1ccccc1)c1cc(S(=O)(=O)Nc2ccc(Cl)cn2)ccc1Cl`, the “% Inhibition @ 10 uM” value is listed as 10%.
The value for `O=C(NCCN1C(=O)C2C3C=CC(C3)C2C1=O)N1CCCCC1` (centres unmarked) was -6.78%; that for `O=c1c2oc3ccccc3c2n(Cc2ccc(F)cc2)c(=O)n1Cc1ccc2c(c1)OCO2` was -1.39%.
Regarding `CC(=O)c1oc2ccccc2c1NC(=O)c1ccc(C(F)(F)F)cc1`, the “% Inhibition @ 10 uM” value was -3.04%.
Take `CCc1ccc(-c2cn3c(n2)sc2cc(C(=O)N4CCN(c5ncccn5)CC4)ccc23)cc1`: the “% Inhibition @ 10 uM” value stood at 20.5%.
With `COc1ccc(OC)c2c1nc(C(C)O)n2C` (centres unmarked), the “% Inhibition @ 10 uM” value is given as -2.72%.
In the case of `Cc1csc(NC(=O)c2sc3nc4c(c(C(F)(F)F)c3c2N)CCCC4)n1` it was -0.318%; in that of `COc1ccccc1N(C)C(=O)c1cnoc1C`, -2.74%.
In the case of `CC(=O)Nc1sc2c(c1C(N)=O)CCCCCC2` it was 2.65%.
`O=c1c2ccccc2nc(/C=C/c2ccc(O)c(O)c2)n1-c1ccccc1`: the “% Inhibition @ 10 uM” value is 2.65%.
Regarding `CCOc1ccc(C2CC(=O)NC3=C2C(=O)CC(c2ccccc2Cl)C3)cc1` (centres unmarked), the “% Inhibition @ 10 uM” value was -0.396%.
As for `CC(=O)NCCc1c[nH]c2ccc(OCc3ccccc3)cc12`, the “% Inhibition @ 10 uM” value is on record as 1.29%.
Turning to `CCn1c(CCNC(=O)c2ccco2)nc2ccccc21`, the “% Inhibition @ 10 uM” value is -4.95%.
The value for `O=C1CC(NC2CCN(c3ncc(C(F)(F)F)cc3Cl)CC2)C(=O)N1Cc1ccccc1` (centres unmarked) was 4.31%; that for `CCn1ccc(C(=O)NCc2ccc(C(=O)O)cc2)n1` was -0.67%; that for `CCOc1ccc(-c2nc(CSCC(=O)NC(C)CC)c(C)o2)cc1` (centres unmarked) was 5.28%.
Regarding `O=C(Cn1ncc2c3ccccc3nc-2c1O)N1CCN(c2ccccn2)CC1`, the “% Inhibition @ 10 uM” value was determined as 3.5%.
In the case of `CCN(CC)C(=O)CSc1nc(O)cc(=O)n1-c1ccc(Cl)c(Cl)c1` it was 4.09%; in that of `COc1ccc(Br)cc1CNC(=O)C1CCCN(c2nc3ccccc3o2)C1` (centres unmarked), 2.05%.
Turning to `COc1ccccc1NC(=O)CCCc1ccccc1`, the “% Inhibition @ 10 uM” value amounted to 4.22%.
The value for `CN(C)c1ccc(CN2CCN(c3ccc(Cl)cc3)CC2)cc1` was 3.01%; that for `CCOC(=O)C1=C(Sc2nnc3nc(C)cc(C)n23)NC(=O)NC1c1ccccc1` (centres unmarked) was 0.627%.
Turning to `CC(C)(C)c1ccccc1OCCCN1CCCC1`, the “% Inhibition @ 10 uM” value turned out to be 5.03%.
Turning to `CCN(CC)S(=O)(=O)c1cc(C(=O)Nc2ccc(Cl)cn2)ccc1C`, the “% Inhibition @ 10 uM” value was -4.72%.
As for `COc1cccc2c3c(c(O)nc12)CCC(C)(C)O3`, the “% Inhibition @ 10 uM” value is -1.04%.
In the case of `O=C(CSc1ccc2nnc(CCNS(=O)(=O)c3ccccc3)n2n1)NC1CCCCC1` it was -1.11%; in that of `CCC1(CC)C(=O)N(C(=O)c2ccccc2)C(=O)N(C(=O)c2ccccc2)C1=O`, -2.87%.
In the case of `CCCCCCSc1nc(O)cc(=O)n1CC`, the “% Inhibition @ 10 uM” value is 1.38%.
Regarding `CC(=O)Nc1cccc(NC(=O)Cc2ccccc2)c1`, the “% Inhibition @ 10 uM” value was 3.03%.
Turning to `COC(=O)c1cc(OC)c(OC)cc1NC(=O)c1ccccc1`, the “% Inhibition @ 10 uM” value is reported as -0.128%.
As for `COc1ccc(-c2cc(C)no2)cc1S(=O)(=O)N1CCN(c2ccccn2)CC1`, the “% Inhibition @ 10 uM” value is listed as 2.74%.
As to `O=C(COc1cccc2ccccc12)Nc1ccc(Cl)cc1`, the “% Inhibition @ 10 uM” value was determined as 1.96%.
On to `Cc1nc2ccccc2n1CCc1nc2c3ccccc3nc(NC3CCCCC3)n2n1`, for which the “% Inhibition @ 10 uM” value is given as -4.21%.
In the case of `COc1ccc(OC)c(C2C(C(=O)c3ccc4c(c3)OCCO4)=C(O)C(=O)N2CCN(C)C)c1` (centres unmarked) it was -6.2%.
The value for `COC(=O)c1sccc1S(=O)(=O)N1CCOCC1` was 1.97%.
Take `CC(C)(C)OC(=O)N1CCC(C(N)=O)CC1`: the “% Inhibition @ 10 uM” value came to 2.39%.
For `Cc1nc2c(-c3ccc(F)cc3)c(C)nn2c(C)c1CCC(=O)NC(C)c1ccc2c(c1)OCCO2` (centres unmarked), the “% Inhibition @ 10 uM” value turned out to be 2.93%.
On to `COc1ccc(Cn2ccc3nc(C)c(C(=O)N4CCN(c5ncccn5)CC4)cc3c2=O)cc1`, for which the “% Inhibition @ 10 uM” value is on record as 2.48%.
As for `COc1ccc(C(=O)Nc2ccc(Cl)cc2C(=O)NCc2ccco2)cc1`, the “% Inhibition @ 10 uM” value was -4.39%.
With `COC(=O)c1ccc(C(=O)N(CCCN(C)C)c2nc3c(F)cc(F)cc3s2)cc1`, the “% Inhibition @ 10 uM” value is reported as -0.578%.
As for `COc1ccc(OC)c(/C=C2/N=C(c3cccc(Cl)c3Cl)OC2=O)c1`, the “% Inhibition @ 10 uM” value is -19.2%.
As for `O=C(Nc1cccc(Cl)c1)c1ccco1`, the “% Inhibition @ 10 uM” value is reported as -2.63%.
In the case of `Cc1ccc(NC(=O)c2c(C)nc(Nc3nc4ccccc4o3)nc2C)cc1`, the “% Inhibition @ 10 uM” value is 5.66%.
As for `Cc1ccc(NC(=O)CN2C(=O)S/C(=C\c3cccc(O)c3)C2=O)cc1`, the “% Inhibition @ 10 uM” value came to 2.37%.
As to `CC(=O)NCc1nc2ccccc2n1Cc1ccccc1F`, the “% Inhibition @ 10 uM” value is 1.23%.
As to `CCOC(=O)C(=O)Nc1sc2c(c1C(=O)OCC)CC(C)(C)OC2`, the “% Inhibition @ 10 uM” value is given as -3.06%.
The value for `COCCNC(=O)CN1N=C(c2ccccc2)CCC1=O` was 6.86%; that for `Cc1n[nH]c(C)c1N1C(=O)c2cccc3cc(Br)cc(c23)C1=O` was -1.44%; that for `CS(=O)(=O)N1CCC(C(=O)NCc2ccccc2Cl)CC1` was 1.88%.
For the molecule `CC1CN(S(=O)(=O)c2ccccc2)C(C)CN1S(=O)(=O)c1ccccc1` (centres unmarked), the “% Inhibition @ 10 uM” value is recorded as -6.29%.
As to `CCOC(=O)c1cnc2cc(Cl)c(OC)cc2c1NCC1CCCO1` (centres unmarked), the “% Inhibition @ 10 uM” value came to 0.231%.
In the case of `Cc1cccc(CSc2nnc(C)n3c2cc2sccc23)c1` it was 3.61%; in that of `COc1ccc(/C=C\c2onc(C)c2S(=O)(=O)N2CCC(C(=O)NCc3ccco3)CC2)cc1`, 0.458%.
For `CCCOC(=O)CSc1nc(C)cc(C)c1C#N`, the “% Inhibition @ 10 uM” value was determined as 1.13%.
Consider `CC(C)=CCC[C@H](C)CCN1CCN(C/C=C/c2ccccc2)CC1`, for which the “% Inhibition @ 10 uM” value is given as -3.15%.
`O=C(Cc1ccccc1)Nc1ccc(S(=O)(=O)N2CCOCC2)cc1`: the “% Inhibition @ 10 uM” value was found to be 2.64%.
With `N=C(NOC(=O)c1ccccc1F)c1cccnc1`, the “% Inhibition @ 10 uM” value was determined as 6.59%.
For the molecule `CC1CCc2c(sc3nc(-c4cc5ccccc5oc4=O)nc(O)c23)C1` (centres unmarked), the “% Inhibition @ 10 uM” value was 0.372%.
Regarding `CCOc1ccccc1C(=O)Nc1nc2ccc(C)cc2s1`, the “% Inhibition @ 10 uM” value was -0.28%.
On to `CCC(=O)Nc1ccc2c(C)cc(O)nc2c1`, for which the “% Inhibition @ 10 uM” value is -5.54%.
Turning to `CC1CCC2C(=O)N(c3ccccc3Cl)C(=O)C2C1` (centres unmarked), the “% Inhibition @ 10 uM” value is -9.24%.
Take `COc1ccc(C2OCC3(CO2)SC(N)=NC3=O)cc1OC` (centres unmarked): the “% Inhibition @ 10 uM” value came to 2.73%.
The value for `COc1cc(CN2CCc3ccccc3C2)cc(OC)c1O` was -0.969%; that for `CCC(NS(=O)(=O)c1ccc(C(=O)O)cc1)C12C[C@H]3C[C@@H](C1)C[C@@H](C2)C3` (some centres unmarked) was -1.07%; that for `O=[N+]([O-])c1ccc(N2CCN(Cc3cccs3)CC2)cc1` was -3.71%.
Consider `COc1ccc(C2C3=C(CCCC3=O)N(CC(=O)O)C3=C2C(=O)CCC3)cc1`, for which the “% Inhibition @ 10 uM” value was found to be 0.389%.
In the case of `COc1ccc(C(C)NCc2cccnc2)cc1` (centres unmarked) it was -7.96%; in that of `Cc1ccc(-c2nnc(NCc3ccccc3)c3ccccc23)cc1S(=O)(=O)N1CCOCC1`, -3.41%; in that of `CCN(CC)CCN(C)Cc1cc(F)ccc1F`, -1.75%.
In the case of `CC(C)CNC(=O)CN(Cc1ccc(Br)cc1)S(=O)(=O)c1ccc(Cl)cc1`, the “% Inhibition @ 10 uM” value is listed as -1.63%.
In the case of `CN1CCCC1CCNC1CCc2ccccc2C1` (centres unmarked) it was -6.62%; in that of `COc1ccccc1/C=C/C=C1N=C(/C=C/c2ccc(C)cc2)OC\1=O`, 3.74%.
With `O=C(O)CCNC1=NC(=O)CS1`, the “% Inhibition @ 10 uM” value is given as -1.82%.
`CN(C(=O)C1CC(c2ccc(F)cc2)=NO1)C1CCCCC1` (centres unmarked): the “% Inhibition @ 10 uM” value was -0.431%.
In the case of `CCCC(=O)Nc1nc2nc(C)cc(C)n2n1` it was 2.05%; in that of `CC(C)NC(=O)c1ccc(Cn2c(SCc3ccc(F)cc3)nc3ccncc32)cc1`, 1.21%; in that of `CCCCOC(=O)c1ccc2c(c1)C(=O)N(c1ccc([N+](=O)[O-])cc1)C2=O`, -2%.
For the molecule `Cc1ccc2ccc(S(=O)(=O)N3CCCCC3)cc2c1`, the “% Inhibition @ 10 uM” value stood at 0.467%.
In the case of `COCCNC(=O)CCC(=O)N1Cc2ccccc2Oc2ncccc21` it was 3.87%; in that of `CCN1CCN(C2CCC(C)C2)CC1` (centres unmarked), -4.04%.
With `O=C1C2C3C=CC(CO)(O3)C2C(=O)N1c1cccc(Br)c1` (centres unmarked), the “% Inhibition @ 10 uM” value came to 3.74%.
The value for `CC1(C)C2CCC1(C(=O)O)c1nc3ccccc3nc12` (centres unmarked) was -2.91%; that for `CC(=O)Nc1ccc(OCC(O)CNC2CCN(C)CC2)cc1` (centres unmarked) was -7.23%; that for `N#CC1=C(N)Oc2[nH]nc(-c3ccccc3)c2C1c1cccc(Cl)c1` (centres unmarked) was -2.46%.
As for `CCn1c2c(c3cc(Cl)ccc31)CCC/C2=N\O`, the “% Inhibition @ 10 uM” value is -0.803%.
For the molecule `Cc1ccccc1C(=O)Nc1ccc(Cl)cc1Cl`, the “% Inhibition @ 10 uM” value is given as -3.04%.
For the molecule `COC(=O)c1cn(CC(=O)N2CCC(C)CC2)c2ccccc12`, the “% Inhibition @ 10 uM” value is -3.64%.
In the case of `CCCCCCCCOc1ccc(/C=C(\C#N)c2nc(-c3cc4ccccc4oc3=O)cs2)cc1` it was -0.771%; in that of `CNC(=O)/C(C#N)=C/c1c(Oc2ccccc2)nc2c(C)cccn2c1=O`, 3.63%; in that of `CCOc1ccccc1C(=O)Nc1ccccc1F`, 5.31%.
As to `Cc1ccc2[nH]c(C)c(CCNc3ncnc4c3oc3ccccc34)c2c1`, the “% Inhibition @ 10 uM” value was found to be 2.57%.
As for `O=C(O)C1C2C=CC(O2)C1C(=O)Nc1nc2ccccc2s1` (centres unmarked), the “% Inhibition @ 10 uM” value is reported as -3.97%.
Take `COc1ccc(-c2cc(C(=O)Nc3cc(S(N)(=O)=O)ccc3C)c3ccccc3n2)cc1OC`: the “% Inhibition @ 10 uM” value worked out at 5.31%.
